# In PubChem BioAssay AID662 (National Center for Advancing Translational Sciences (NCATS), 2007):
# The campaign covered roughly 71,000 compounds. About 1,800 (2.5%) were called active. The shares of active, inactive and inconclusive entries below differ from those in the screen. The call rests on the fitted dose curve; in most records, active means well fitted activation curve with a large enough effect in the signal ratio, with a control signal flat (not every such curve was filed as active); inconclusive means small, poorly fitted or top-dose-only effect, or effect the other way, or a change in a side signal; inactive means flat fitted curve, though single readings scatter; the % refers to the signal ratio. Potencies beside an inconclusive call are fits to weak or partial responses and may not hold up.
# Experiment: Cell signaling CRE-BLA (Fsk stim); on activity change, negative = inhibition: % of control where 0% means no effect
# Conditions: CHO CRE-bla reporter (cAMP response element driving beta-lactamase), forskolin EC10, beta-lactamase ratio; activity change, negative = inhibition: at 38.2 µM (top of the series) unless noted
# Outline: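 qHTS titration format; CRE-bla CHO reporter; stimulus EC10 NKH 477, a water-soluble forskolin. Read: CCF4 460/530 nm ratio. Potency expressed as AC50 for activators or inhibitors.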
# Potency means the concentration at half of the fitted maximal effect; tags describe the fitted curve by direction and shape.
SMILES,Potency,"activity change, negative = inhibition"
[O-][n+]1c2c(nn1-c1ccccc1Cl)-c1nonc1CC2,"inconclusive: 3.98 µM [falling, single point]",–
COc1ccc(-c2nc3cnc(N4CCOCC4)nc3n(CCc3ccccc3)c2=O)cc1,"inconclusive: 0.398 µM [rising, full curve]",–
c1ccc(C2=Nn3c(nnc3-c3cc(-c4ccccc4)n[nH]3)SC2)cc1,"inconclusive: 0.158 µM [rising, full curve, poor fit]",–
COc1ccc(NC(=O)CCS(=O)(=O)c2cccc3nonc23)c(OC)c1,–,inconclusive: -15%
Cc1c(-c2ccc(Cl)cc2)noc1C1CCN(CCc2ccccc2)CC1,–,inconclusive: -25.1%
O=c1c(-c2ccc(F)cc2)nc2cnc(Nc3ccccc3)nc2n1C[C@H]1CCCO1,active: 0.251 µM,–
NC(=O)c1cnccn1,–,inactive
Cc1nc2cnc(Oc3cccc(Cl)c3)nc2n(Cc2ccc(F)cc2)c1=O,"inconclusive: 3.98 µM [rising, partial curve]",–
CCNc1nc(Oc2ccc(=O)n(C)n2)nc(N2CCOCC2)n1,–,inconclusive: 25.8%
Cc1cc2cc(CN(Cc3ccc4c(c3)OCO4)Cc3nnnn3C3CCCC3)c(=O)[nH]c2cc1C,–,inactive: 12.6%
COc1ccccc1NC(=O)c1oc2ccccc2c1NC(=O)c1ccco1,–,inconclusive: 26.6%
Oc1cc(O)c2c(c1)O[C@H](c1ccc(O)c(O)c1)[C@@H](O)[C@@H]2c1c(O)cc(O)c2c1O[C@@H](c1ccc(O)c(O)c1)[C@H](O)C2,–,inactive: 1.44% [at 7.6 µM]
Cc1nn(C)c(C)c1N=Cc1c(O)ccc2ccccc12,–,inactive: 3.57%
CC(C)(C)NC(=O)[C@@H]1C[C@H]2CCCC[C@@H]2CN1C[C@H](O)[C@H](Cc1ccccc1)NC(=O)[C@@H](CC(N)=O)NC(=O)c1ccc2ccccc2n1,–,inactive: -11.3% [at 17.1 µM]
C=C(C)Cn1c(N2CCCC2)nc2c1c(=O)[nH]c(=O)n2C,"inconclusive: 10 µM [rising, partial curve]",–
c1coc(CNc2c3c(nc4ccccc24)CCC3)c1,–,inactive: 2.44%
Cc1cccc2cc(CN(CC3CCCO3)C(=O)c3ccco3)c(=O)[nH]c12 (centres undefined),–,inactive: 15.6%
O=[n+]1c2c(n([O-])c3cc(Br)ccc31)CCC2,–,inconclusive: -22.9%
CCCc1ccc(C(=O)CCC(=O)O)cc1,"inconclusive: 0.0251 µM [falling, full curve, poor fit]",–
COc1ccc(CNC(=O)c2noc3c2CCCCC3)cc1,"inconclusive: 3.98 µM [rising, single point]",–
O=C(NCc1ccco1)c1ccccc1Nc1ccc(F)cc1,–,inconclusive: -25.8%
CCOCCCn1cnc2c(c1=O)c1nc3ccccc3nc1n2-c1ccc(C)cc1,"inconclusive: 5.01 µM [rising, partial curve]",–
CCN1C(=O)C2(C(C(=O)c3ccc(C)o3)=C(O)C(=O)N2CCCN2CCOCC2)c2ccccc21 (centres undefined),–,inconclusive: -2.45%
CC(C)CC(=O)NC1(C(F)(F)F)C(=O)Nc2c1c(=O)n(C)c(=O)n2C (centres undefined),–,inactive: -2.77%
Cc1nc(SCC(=O)N(C)Cc2ccco2)c2c(C)c(C)sc2n1,"inconclusive: 10 µM [rising, partial curve]",–

SMILES,Potency,"activity change, negative = inhibition"
O=C(Nc1ccncc1)c1cc2ccccc2oc1=O,–,inconclusive: 4.19%
CC(NS(=O)(=O)c1ccc(Cl)cc1)C(c1cccs1)N1CCN(C)CC1 (centres undefined),"inconclusive: 25.1 µM [falling, single point]",–
CC1(C)O[C@H]2C[C@@H]3[C@H]4CCC5=CC(=O)CC[C@@]5(C)[C@]4(F)[C@@H](O)C[C@@]3(C)[C@@]2(C(=O)CCl)O1,–,inconclusive: 0.835% [at 17.1 µM]
Cc1nnc2ccc(N3CCC4(CC3)OCCO4)nn12,–,inactive: 0%
Cc1cccn2c(=O)c(C=Nc3ccccc3)c(NCc3ccco3)nc12,"inconclusive: 10 µM [rising, partial curve]",–
COc1ccc(C2C(=O)N(C3CCCCC3)CC(=O)N2Cc2ccco2)cc1 (centres undefined),–,inconclusive: -15.2%
CN(C)c1ncc2nc(-c3ccc(Cl)cc3)c(=O)n(C[C@H]3CCCO3)c2n1,active: 3.98 µM,–
O=C(Nc1cccc(C(F)(F)F)c1)C1CCCN(c2ncccn2)C1 (centres undefined),–,inactive: 6.13%
CC(=O)O[C@H]1C(=O)[C@@]2(C)[C@H]([C@H](OC(=O)c3ccccc3)[C@]3(O)C[C@H](OC(=O)[C@H](O)[C@@H](NC(=O)c4ccccc4)c4ccccc4)C(C)=C1C3(C)C)[C@]1(OC(C)=O)CO[C@@H]1C[C@@H]2O,–,inconclusive: -20.4%
COc1ccc2[nH]cc(CCNc3cc(-c4cccc(C#N)c4)ncn3)c2c1,–,inconclusive: 19.9%
CCOC(=O)c1c(-c2cccs2)csc1NC(=O)CN1CCOCC1,active: 12.6 µM,–
COc1ccc(N(C)S(=O)(=O)c2cccc(C(=O)Nc3ccc(-n4cnnn4)cc3)c2)cc1,–,inconclusive: -25.7%
CCCn1c(N)c(C(=O)COC(=O)c2c(C)noc2C)c(=O)n(C)c1=O,"inconclusive: 3.16 µM [falling, single point]",–
COC(=O)c1ccc(C2CC(=O)Nc3cc(OC)c(OC)cc32)cc1 (centres undefined),–,inconclusive: 20.9%
O=C1CC(Sc2nnc(-c3ccccc3O)o2)C(=O)N1c1ccccc1 (centres undefined),–,inconclusive: 3.94%
Cc1cc(C)cc(-n2cc3c(=O)n(C)c(=O)n(C)c3c2)c1,"inconclusive: 10 µM [rising, single point]",–
CCOc1ccc2[nH]c(=O)c(CN(CC3COCCO3)C(=O)c3ccco3)cc2c1 (centres undefined),–,inactive: 1.17%
Nc1nc(CN2CCN(c3ccccc3F)CC2)nc(Nc2ccccc2)n1,–,inconclusive: -6.14%
Cc1ccc(-c2nn(C)c(=O)c3ccccc23)cc1CNC(=O)CN1CCOCC1,"inconclusive: 10 µM [rising, single point]",–
COc1ccc2nc3c(cc2c1)c(NC(=O)C1CCCO1)nn3CC(C)C (centres undefined),"inconclusive: 12.6 µM [rising, partial curve]",–
CN(C)CCCO[C@H]1[C@H]([C@H](O)CO)O[C@H]2OC(C)(C)O[C@@H]21,–,inactive: -0.204%
Cc1c(CNC(=O)c2cnn3c2NC(c2ccc(Br)cc2)CC3C(F)(F)F)cnn1C (centres undefined),–,inactive: -21.3%
COc1nc(-c2ccccc2)cc(-c2ccc(OC)c(OC)c2)n1,"inconclusive: 0.398 µM [rising, partial curve]",–
O=C(Nc1ccccc1)N1CC2(CCN(S(=O)(=O)c3ccccc3)CC2)C1,–,inactive: -1.52%
CC[C@H](C)[C@@H]1O[C@]2(CC[C@@H]1C)C[C@H]1C[C@H](CC=C(C)[C@@H](O[C@H]3C[C@H](OC)[C@H](O[C@H]4C[C@H](OC)[C@H](O)[C@H](C)O4)[C@H](C)O3)[C@@H](C)C=CC=C3CO[C@@H]4[C@@H](O)C(C)=C[C@H](C(=O)O1)[C@@]34O)O2,–,inconclusive: 11.1% [cytotoxic]

SMILES,Potency,"activity change, negative = inhibition"
Clc1ccc(OCc2nc(-c3ccncc3)no2)c(Br)c1,–,inactive: 22%
CC(=O)c1c(C(C)=O)c(C)n(CCCCn2c(C)c(C(C)=O)c(C(C)=O)c2C)c1C,–,inconclusive: -6.32%
O=S(NCc1ccco1)C12CC3CC(CC(C3)C1)C2 (centres undefined),–,inactive: -20.1%
Cc1nn(-c2nc3ccccc3s2)c(N)c1-c1ccc(Cl)cc1,"inconclusive: 12.6 µM [rising, single point]",–
O=S(=O)(NC1CCCCC1)c1ccc(S(=O)(=O)N2CCN3CCCC3C2)cc1 (centres undefined),–,inconclusive: 5.37%
CC1CCCC(C)N1C(=O)COC(=O)c1ccc[nH]c1=O (centres undefined),"inconclusive: 3.16 µM [falling, single point]",–
Cn1nc(CC(=O)Nc2ccc(N3CCN(C(=O)OC(C)(C)C)CC3)cc2)c2ccccc2c1=O,–,inconclusive: -23.3%
O=C(NC1CCCC1)C(c1ccc(N2CCOCC2)cc1)N(Cc1ccccc1)C(=O)c1ccco1 (centres undefined),–,inactive: -2.96%
Cc1cnc(CNc2ccnc(-c3cccc(C#N)c3)n2)cn1,"inconclusive: 15.8 µM [rising, single point]",–
Cc1cc2c(cc1C)NC(c1cccnc1)C1=C(CC(C)(C)CC1=O)N2 (centres undefined),–,inactive: -1.34%
CC(=O)C1=C(O)C(=O)N(CCN2CCOCC2)C1c1ccccc1 (centres undefined),–,inconclusive: -4.64%
Cc1ccc2c(c1)c1cccc3c1n2CCN3CCC(N)=O,"inconclusive: 15.8 µM [rising, single point]",–
CCN(CC)CCNC(=O)CCn1c(=S)[nH]c2cc3c(cc2c1=O)OCO3,–,inconclusive: -10.4%
N#CCSC1=Nc2ccccc2C2=NC(CCC(=O)N3CCN(c4ccccc4)CC3)C(=O)N12 (centres undefined),–,inactive: -5.08%
Cc1cc(C)c2c(N)c(C(=O)NCc3ccco3)sc2n1,–,inconclusive: 28.1%
Cc1cc(C(=O)N2CCc3ccccc32)c2cc(F)ccc2n1,–,inconclusive: 7.03%
CCN(CC)c1nc2cc(OC)ccc2cc1C#N,active: 12.6 µM,–
Cc1c(C(=O)NCc2cccnc2)sc2nc(-c3ccc(F)cc3)cn12,active: 3.16 µM,–
Cc1noc(/C=C/c2ccco2)c1S(=O)(=O)N1CCC(C(=O)N(C)Cc2ccccc2)CC1,–,inconclusive: 7.11%
CCn1cc(C(=O)NC2CCCCC2)c(=O)c2cc(S(=O)(=O)N(C)C)ccc21,–,inactive: 9.9%
O=c1cc(N2CCN(c3cccc(Cl)c3)CC2)[nH]c(=O)n1C1CCCCC1,"inconclusive: 7.94 µM [falling, partial curve]",–
CCOC(=O)C(C)Sc1nc2ccccc2c(=O)n1CC (centres undefined),"inconclusive: 15.8 µM [rising, single point]",–
COc1ccc(-n2c(Cc3cccn3C)nnc2SCC(=O)Nc2ccc(C)cc2)cc1,–,inconclusive: -7.09%
COC(=O)COc1nsnc1N1CCOCC1,"inconclusive: 15.8 µM [rising, single point]",–
